# Data reported in the supplement of paper PMC8728848.
# This is one part of the list.
# Experiments:
# Experiment in all cases: glycan array binding signal (z-score within array); higher = stronger binding
# Settings in all cases: glycan notation: IUPAC condensed, linker removed
# [1] = target: Neu5Ac(a2-3)GalNAc
# Method in brief: (§1)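 The binding signal is a Z-score computed within each array. Data were drawn from 3228 arrays in the Consortium for Functional Glycomics database, restricted to those with a known protein sequence. Scores were averaged over arrays of the same protein sequence at different concentrations or buffers, and over linkers, and negative values can be taken as non-binding.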
# [2] = target: Neu5Ac(a2-3)GalNAc(b1-4)GlcNAc
# Method in brief: as §1
# [3] = target: Neu5Ac(a2-3)[GalNAc(b1-4)]Gal(b1-4)Glc
# Method in brief: as §1
# [4] = target: Neu5Ac(a2-3)[GalNAc(b1-4)]Gal(b1-4)GlcNAc
# Method in brief: as §1
# [5] = target: Neu5Ac(a2-3)[GalNAc(b1-4)]Gal(b1-4)GlcNAc(b1-3)GalNAc
# Method in brief: as §1
# [6] = target: Neu5Ac(a2-3)[Neu5Ac(a2-6)]GalNAc
# Method in brief: as §1
# [7] = target: Neu5Ac(a2-6)Gal
# Method in brief: as §1
# [8] = target: Neu5Ac(a2-6)Gal(b1-3)GlcNAc(b1-3)[Gal(b1-4)GlcNAc(b1-6)]Gal(b1-4)Glc
# Method in brief: as §1
# [9] = target: Neu5Ac(a2-6)Gal(b1-4)Glc
# Method in brief: as §1
# [10] = target: Neu5Ac(a2-6)Gal(b1-4)GlcNAc
# Method in brief: as §1
# [11] = target: Neu5Ac(a2-6)Gal(b1-4)GlcNAc(b1-2)Man
# Method in brief: as §1
# [12] = target: Neu5Ac(a2-6)Gal(b1-4)GlcNAc(b1-2)Man(a1-3)Man(b1-4)GlcNAc(b1-4)GlcNAc
# Method in brief: as §1
# [13] = target: Neu5Ac(a2-6)Gal(b1-4)GlcNAc(b1-2)Man(a1-3)[Gal(b1-4)GlcNAc(b1-2)Man(a1-6)]Man(b1-4)GlcNAc(b1-4)GlcNAc
# Method in brief: as §1
# [14] = target: Neu5Ac(a2-6)Gal(b1-4)GlcNAc(b1-2)Man(a1-3)[GlcNAc(b1-2)Man(a1-6)]Man(b1-4)GlcNAc(b1-4)GlcNAc
# Method in brief: as §1
# [15] = target: Neu5Ac(a2-6)Gal(b1-4)GlcNAc(b1-2)Man(a1-3)[GlcNAc(b1-4)][Neu5Ac(a2-6)Gal(b1-4)GlcNAc(b1-2)Man(a1-6)]Man(b1-4)GlcNAc(b1-4)GlcNAc
# Method in brief: as §1
# [16] = target: Neu5Ac(a2-6)Gal(b1-4)GlcNAc(b1-2)Man(a1-3)[Man(a1-6)]Man(b1-4)GlcNAc(b1-4)GlcNAc
# Method in brief: as §1
# [17] = target: Neu5Ac(a2-6)Gal(b1-4)GlcNAc(b1-2)Man(a1-3)[Neu5Ac(a2-3)Gal(b1-4)GlcNAc(b1-2)Man(a1-6)]Man(b1-4)GlcNAc(b1-4)GlcNAc
# Method in brief: as §1
# [18] = target: Neu5Ac(a2-6)Gal(b1-4)GlcNAc(b1-2)Man(a1-3)[Neu5Ac(a2-6)Gal(b1-4)GlcNAc(b1-2)Man(a1-6)]Man(b1-4)GlcNAc(b1-4)GlcNAc
# Method in brief: as §1
# [19] = target: Neu5Ac(a2-6)Gal(b1-4)GlcNAc(b1-2)Man(a1-3)[Neu5Ac(a2-6)Gal(b1-4)GlcNAc(b1-2)Man(a1-6)]Man(b1-4)GlcNAc(b1-4)[Fuc(a1-6)]GlcNAc
# Method in brief: as §1
# [20] = target: Neu5Ac(a2-6)Gal(b1-4)GlcNAc(b1-2)Man(a1-6)Man(b1-4)GlcNAc(b1-4)GlcNAc
# Method in brief: as §1
# [21] = target: Neu5Ac(a2-6)Gal(b1-4)GlcNAc(b1-2)Man(a1-6)[Gal(b1-4)GlcNAc(b1-2)Man(a1-3)]Man(b1-4)GlcNAc(b1-4)GlcNAc
# Method in brief: as §1
# [22] = target: Neu5Ac(a2-6)Gal(b1-4)GlcNAc(b1-2)Man(a1-6)[GlcNAc(b1-2)Man(a1-3)]Man(b1-4)GlcNAc(b1-4)GlcNAc
# Method in brief: as §1
# [23] = target: Neu5Ac(a2-6)Gal(b1-4)GlcNAc(b1-2)Man(a1-6)[Man(a1-3)]Man(b1-4)GlcNAc(b1-4)GlcNAc
# Method in brief: as §1
# [24] = target: Neu5Ac(a2-6)Gal(b1-4)GlcNAc(b1-2)[Neu5Ac(a2-6)Gal(b1-4)GlcNAc(b1-4)]Man(a1-3)[GlcNAc(b1-4)][Neu5Ac(a2-6)Gal(b1-4)GlcNAc(b1-2)[Neu5Ac(a2-6)Gal(b1-4)GlcNAc(b1-6)]Man(a1-6)]Man(b1-4)GlcNAc(b1-4)GlcNAc
# Method in brief: as §1
# [25] = target: Neu5Ac(a2-6)Gal(b1-4)GlcNAc(b1-2)[Neu5Ac(a2-6)Gal(b1-4)GlcNAc(b1-4)]Man(a1-3)[GlcNAc(b1-4)][Neu5Ac(a2-6)Gal(b1-4)GlcNAc(b1-4)Man(a1-6)]Man(b1-4)GlcNAc(b1-4)GlcNAc
# Method in brief: as §1
# [26] = target: Neu5Ac(a2-6)Gal(b1-4)GlcNAc(b1-2)[Neu5Ac(a2-6)Gal(b1-4)GlcNAc(b1-6)]Man(a1-6)[Neu5Ac(a2-6)Gal(b1-4)GlcNAc(b1-2)Man(a1-3)][GlcNAc(b1-4)]Man(b1-4)GlcNAc(b1-4)GlcNAc
# Method in brief: as §1
# [27] = target: Neu5Ac(a2-6)Gal(b1-4)GlcNAc(b1-3)Gal(b1-3)GlcNAc
# Method in brief: as §1
# [28] = target: Neu5Ac(a2-6)Gal(b1-4)GlcNAc(b1-3)Gal(b1-4)GlcNAc
# Method in brief: as §1
# [29] = target: Neu5Ac(a2-6)Gal(b1-4)GlcNAc(b1-3)Gal(b1-4)GlcNAc(b1-2)Man(a1-3)[Neu5Ac(a2-6)Gal(b1-4)GlcNAc(b1-3)Gal(b1-4)GlcNAc(b1-2)Man(a1-6)]GalNAc
# Method in brief: as §1
# [30] = target: Neu5Ac(a2-6)Gal(b1-4)GlcNAc(b1-3)Gal(b1-4)GlcNAc(b1-3)Gal(b1-4)GlcNAc
# Method in brief: as §1
# [31] = target: Neu5Ac(a2-6)Gal(b1-4)GlcNAc(b1-3)Gal(b1-4)GlcNAc(b1-3)Gal(b1-4)GlcNAc(b1-2)Man(a1-3)[Neu5Ac(a2-6)Gal(b1-4)GlcNAc(b1-3)Gal(b1-4)GlcNAc(b1-3)Gal(b1-4)GlcNAc(b1-2)Man(a1-6)]GalNAc
# Method in brief: as §1
# [32] = target: Neu5Ac(a2-6)Gal(b1-4)GlcNAc(b1-3)Gal(b1-4)GlcNAc(b1-3)GalNAc
# Method in brief: as §1
# [33] = target: Neu5Ac(a2-6)Gal(b1-4)GlcNAc(b1-3)Gal(b1-4)GlcNAc(b1-3)[Neu5Ac(a2-6)Gal(b1-4)GlcNAc(b1-3)Gal(b1-4)GlcNAc(b1-6)]GalNAc
# Method in brief: as §1
# [34] = target: Neu5Ac(a2-6)Gal(b1-4)GlcNAc(b1-3)Gal(b1-4)GlcNAc(b1-6)[Gal(b1-3)]GalNAc
# Method in brief: as §1
# [35] = target: Neu5Ac(a2-6)Gal(b1-4)GlcNAc(b1-3)Gal(b1-4)[Fuc(a1-3)]GlcNAc(b1-3)Gal(b1-4)[Fuc(a1-3)]GlcNAc
# Method in brief: as §1
# [36] = target: Neu5Ac(a2-6)Gal(b1-4)GlcNAc(b1-3)GalNAc
# Method in brief: as §1
# [37] = target: Neu5Ac(a2-6)Gal(b1-4)GlcNAc(b1-3)[Neu5Ac(a2-6)Gal(b1-4)GlcNAc(b1-6)]GalNAc
# Method in brief: as §1
# [38] = target: Neu5Ac(a2-6)Gal(b1-4)GlcNAc(b1-6)GalNAc
# Method in brief: as §1
# [39] = target: Neu5Ac(a2-6)Gal(b1-4)GlcNAc(b1-6)[Gal(b1-3)GlcNAc(b1-3)]Gal(b1-4)Glc
# Method in brief: as §1
# [40] = target: Neu5Ac(a2-6)Gal(b1-4)GlcNAc(b1-6)[Gal(b1-3)]GalNAc
# Method in brief: as §1
# [41] = target: Neu5Ac(a2-6)Gal(b1-4)GlcNAc6S
# Method in brief: as §1
# [42] = target: Neu5Ac(a2-6)GalNAc
# Method in brief: as §1
# [43] = target: Neu5Ac(a2-6)GalNAc(b1-4)GlcNAc
# Method in brief: as §1
# [44] = target: Neu5Ac(a2-6)GalNAc(b1-4)GlcNAc6S
# Method in brief: as §1
# [45] = target: Neu5Ac(a2-6)GlcNAc(b1-4)GlcNAc
# Method in brief: as §1
binder,measurement,setting,value
Mg3lysM (Mycosphaerella graminicola) (protein) APQNPPTSCSAAPQPTGTGSPGTVCGSTTFTNYTVKAGDTLGAIAKQYNSGVCDIAKVNGIDNPDYIKPDQVLSIPANCVTPDNTSCVKPVPVITNTCVLGVGSTYTVKSGDSFSAIATSFNITLASLEARNPQIPNYDLIFPGQVINTPLCPNSVCDSIGTYVIESGDIFYNLAQSNNVTVGQLESLNVNVNVTDIHPGDIIILPHNCHNITASA,glycan array binding signal (z-score),[1],-0.136
same,glycan array binding signal (z-score),[2],-0.065
same,glycan array binding signal (z-score),[3],-0.076
same,glycan array binding signal (z-score),[4],-0.088
same,glycan array binding signal (z-score),[5],-0.092
same,glycan array binding signal (z-score),[6],-0.068
same,glycan array binding signal (z-score),[7],-0.083
same,glycan array binding signal (z-score),[8],-0.064
same,glycan array binding signal (z-score),[9],-0.086
same,glycan array binding signal (z-score),[10],-0.067
same,glycan array binding signal (z-score),[11],-0.092
same,glycan array binding signal (z-score),[12],0.073
same,glycan array binding signal (z-score),[13],-0.044
same,glycan array binding signal (z-score),[14],-0.094
same,glycan array binding signal (z-score),[15],-0.067
same,glycan array binding signal (z-score),[16],-0.067
same,glycan array binding signal (z-score),[17],-0.141
same,glycan array binding signal (z-score),[18],-0.06
same,glycan array binding signal (z-score),[19],-0.051
same,glycan array binding signal (z-score),[20],0.023
same,glycan array binding signal (z-score),[21],-0.047
same,glycan array binding signal (z-score),[22],-0.101
same,glycan array binding signal (z-score),[23],-0.087
same,glycan array binding signal (z-score),[24],-0.084
same,glycan array binding signal (z-score),[25],-0.074
same,glycan array binding signal (z-score),[26],-0.038
same,glycan array binding signal (z-score),[27],-0.098
same,glycan array binding signal (z-score),[28],-0.116
same,glycan array binding signal (z-score),[29],0.02
same,glycan array binding signal (z-score),[30],-0.073
same,glycan array binding signal (z-score),[31],0.091
same,glycan array binding signal (z-score),[32],-0.115
same,glycan array binding signal (z-score),[33],-0.015
same,glycan array binding signal (z-score),[34],0.12
same,glycan array binding signal (z-score),[35],-0.111
same,glycan array binding signal (z-score),[36],-0.079
same,glycan array binding signal (z-score),[37],0.067
same,glycan array binding signal (z-score),[38],-0.05
same,glycan array binding signal (z-score),[39],-0.073
same,glycan array binding signal (z-score),[40],0.04
same,glycan array binding signal (z-score),[41],-0.161
same,glycan array binding signal (z-score),[42],-0.07
same,glycan array binding signal (z-score),[43],-0.074
same,glycan array binding signal (z-score),[44],-0.084
same,glycan array binding signal (z-score),[45],-0.073
